Experimental data as given in patent US20240050583A1, “PROTEIN-DRUG CONJUGATE AND SITE-SPECIFIC CONJUGATING METHOD” (HARBOUR BIOMED (SHANGHAI) CO., LTD, priority 2020, published 2024).
Entries after “also recorded” stand apart in the source; their conditions may differ.

T1: HEK293T-hBCMA cells highly expressing human BCMA (Homo sapiens, UniProt Q02223)
T1 construct: host or cells: HEK293T-hBCMA
T1 sequence (Q02223 1-184): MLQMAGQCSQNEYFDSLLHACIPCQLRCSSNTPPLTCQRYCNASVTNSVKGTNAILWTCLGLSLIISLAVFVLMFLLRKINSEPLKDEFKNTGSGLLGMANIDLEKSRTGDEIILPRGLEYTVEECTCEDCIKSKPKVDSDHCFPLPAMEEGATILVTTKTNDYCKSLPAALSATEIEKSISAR

T2: NCI-H929 cells highly expressing human BCMA (Homo sapiens, UniProt Q02223)
T2 construct: tumor cells NCI-H929 (ATCC, CRL-9068) highly expressing human BCMA; host or cells: NCI-H929
T2 sequence (Q02223 1-184): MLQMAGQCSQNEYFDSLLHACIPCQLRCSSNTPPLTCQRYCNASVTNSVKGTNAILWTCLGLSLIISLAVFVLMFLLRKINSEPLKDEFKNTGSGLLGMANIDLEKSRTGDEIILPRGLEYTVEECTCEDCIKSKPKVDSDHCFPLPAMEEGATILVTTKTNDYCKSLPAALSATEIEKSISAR


Assays:
NCI-H929 cells = assay: Cytotoxic killing experiment (Example 7.5), NCI-H929; assay type: cell-based, human; conditions: 72 h, CellTiter-Glo; PR001046-ADC at 0.1 μg/mL and above; PR001046 0.01-1 μg/mL; mc-vc-PAB-MMAE 0.1-10 nM
From the text: The data were processed and analyzed by plotting using a GraphPad Prism 8 software. In this example, multiple groups of different PR001046-ADC samples were used, including samples containing different percentages of DAR=2 (D2) components before or after purification.

[1] = biological target: T1, HEK293T-hBCMA cells highly expressing human BCMA; assay: FACS binding to HEK293T-hBCMA cells; conditions: flow cytometry FACS
Description: (§1) Specifically, the cells were digested and resuspended in a DMEM complete medium, and the cell density was adjusted to 1×10^6 cells/mL. The cells were seeded in a 96-well V-bottom plate (Corning, #3894) at 100 μL/well, followed by the addition of test antibodies diluted in a 3-fold gradient at a concentration that was 2 times the final concentration, each at 100 μL/well. The cells were incubated at 4° C. for 1 h away from light. Thereafter, the cells in each well were rinsed twice with 100 μL of pre-cooled PBS, and centrifuged at 500 g at 4° C. for 5 min, and then the supernatant was discarded. Thereafter, a fluorescent secondary antibody (Alexa Fluor 488-conjugated AffiniPure Goat Anti-Human IgG, Fcγ Fragment Specific, Jackson ImmunoResearch Inc., #109-545-098, diluted in a 1:500 ratio) was added at 100 μL/well, and the plate was incubated at 4° C. for 30 min away from light. The cells in each well were then rinsed twice with 100 μL of pre-cooled PBS and centrifuged at 500 g at 4° C. for 5 min, and then the supernatant was discarded. Finally, the cells in each well were resuspended in 200 μL of pre-cooled PBS. Fluorescence signal values were read using a BD FACS CANTOII flow cytometer, and the data were processed and analyzed using FlowJo v10 (FlowJo, LLC) software.

[2] = system: mixed cells of NCI-H929 and SNU-16; assay: Cytotoxic killing experiment (Example 7.5), mixed NCI-H929 + SNU-16; assay type: cell-based, human; conditions: 72 h, CellTiter-Glo; 0.1 μg/mL and above
Description: (§2) The NCI-H929 cells and SNU-16 cells were seeded in 96-well plates (Perkin Elmer, #6005225) respectively, with the following seeded cell numbers: 10000 cells/50 PL/well (NCI-H929), 5000 cells/50 μL/well (SNU-16), 10000 NCI-H929 cells and 5000 SNU-16 cells/100 PL/well mixture (NCI-H929+SNU-16). Then, a test sample serially pre-diluted was added at 50 μL/well, with concentrations of 1 μg/mL, 0.1 μg/mL and 0.01 μg/mL for PR001046 and PR001046-ADC, and concentrations of 10 nM, 1 nM and 0.1 nM for mc-vc-PAB-MMAE. Thereafter, the plates were incubated at 37° C. with 5% CO2 for 72 h, a CellTiter-Glo cell viability detection reagent (Promega, #G7573) was added, then the plates were incubated at room temperature for at least 10 min to obtain stable luminescence signals, and the luminescence values were detected using a microplate reader. The data were processed and analyzed by plotting using a GraphPad Prism 8 software. In this example, multiple groups of different PR001046-ADC samples were used, including samples containing different percentages of DAR=2 (D2) components before or after purification.

SNU-16 cells = assay: Cytotoxic killing experiment (Example 7.5), SNU-16; assay type: cell-based, human; conditions: 72 h, CellTiter-Glo
Description: as §2

[3] = system: SNU-16 cells not expressing human BCMA; assay: FACS binding to BCMA-negative SNU-16 cells; conditions: flow cytometry FACS
Description: as §1

[4] = Protein purity and polymers by SEC-HPLC; conditions: purified antigen-binding protein; PR004433 from CHO, variants from HEK293
Description: In this example, analytical size-exclusion chromatography (SEC) was used to analyze the protein sample for purity and polymer form. An analytical chromatography column TSKgel G3000SWxl (Tosoh Bioscience, #08541, 5 μm, 7.8 mm×30 cm) was connected to a high performance liquid chromatography HPLC (Agilent Technologies, Agilent 1260 Infinity II) and equilibrated with a PBS buffer at room temperature for at least 1 h. A proper amount of the protein sample (at least 10 μg) was filtered through a 0.22 μm filter membrane and then injected into the system, and an HPLC program was set: the sample was passed through the chromatography column with PBS buffer at a flow rate of 1.0 mL/min for a maximum of 25 min. The detection wavelength was 280 nm. Operation was performed at room temperature. After being recorded, the chromatogram was integrated using ChemStation software and relevant data were calculated. An analysis was generated, with the retention time of the components with different molecular sizes in the sample reported.

[5] = Melting temperature (Tm1) of proteins by DSF; assay type: physicochemical; conditions: minimum melting temperature
Description: Differential scanning fluorimetry (DSF) is a commonly used high-throughput method for determining the thermostability of proteins. In this method, changes in the fluorescence intensity of the dye that binds to unfolded protein molecules were monitored using a real-time quantitative fluorescence PCR instrument to reflect the denaturation process of the protein and thus to reflect the thermostability of the protein. In this example, the melting temperature (Tm) of a protein molecule was measured by DSF. 10 μg of protein was added to a 96-well PCR plate (Thermo, #AB-0700/W), followed by the addition of 2 μL of 100× diluted dye SYPRO™ (Invitrogen, #2008138), and then the mixture in each well was brought to a final volume of 40 μL by adding buffer. […] The FRET scanning mode was used and data analysis was performed using Bio-Rad CFX Maestro software to calculate the Tm of the sample.
The antigen-binding protein derived from PR004433 in Table 0-3 was expressed and purified according to the method described in 0, and the SEC-HPLC method described in 0 was used to analyze the purity and the DSF method described in 0 was used to determine the minimum melting temperature (Tm1). It can be seen that after the hinge region sequence of HCAb PR004433 is replaced with variant sequences of various linker peptides, and Cys6 and Cys2 are separated by at least 3 other amino acids, the variant sequences derived from PR004433 can be effectively expressed, and the expression yield and thermostability Tm1 of the vast majority of variant molecules are not affected.

[6] = biological target: T2, NCI-H929 cells highly expressing human BCMA; assay: FACS binding to NCI-H929 cells; conditions: flow cytometry FACS
Description: as §1
This example further utilized the method described in 0 to study the binding ability of the HCAb antibody PR004433 and a variant molecule thereof to NCI-H929 cells (ATCC, CRL-9068) highly expressing human BCMA.

[7] = Molecular weight and coupling product components (DAR) by LC-MS; conditions: non-reduced sample, lot CY20210202, before purification
[8] = Coupling product components (DAR) by HIC-HPLC; conditions: lot CY20210202, before purification
Description: In this example, analytical hydrophobic interaction chromatography (HIC) was used to analyze the protein sample for purity and hydrophobicity. […] The program for HPLC was set: a linear gradient from 100% buffer A (25 mM phosphate buffer, 1.5 M ammonium sulfate ((NH4)2SO4), pH 7.0-7.2) to 100% buffer B (20 mM phosphate buffer, 20% isopropyl alcohol (IPA), pH 7.0-7.2) over about 22 min; flow rate: 0.7 mL/min; protein sample concentration: 1 mg/mL; and injection volume: 20 μL. The detection wavelength was 280 nm. Operation was performed at room temperature. After being recorded, the chromatogram was integrated using ChemStation software and relevant data were calculated. An analysis was generated, with the retention time of the components with different molecular sizes in the sample reported; the number of coupling molecules carried by different components of the coupling product could be inferred by different retention time.

[9] = biological target: T3, CHOK1-hCD47 cells highly expressing human CD47 (Homo sapiens, UniProt Q08722); assay: FACS binding to cells highly expressing CD47; conditions: flow cytometry FACS
T3 construct: host or cells: CHOK1-hCD47 (CHO-K1)
T3 sequence (Q08722 19-323): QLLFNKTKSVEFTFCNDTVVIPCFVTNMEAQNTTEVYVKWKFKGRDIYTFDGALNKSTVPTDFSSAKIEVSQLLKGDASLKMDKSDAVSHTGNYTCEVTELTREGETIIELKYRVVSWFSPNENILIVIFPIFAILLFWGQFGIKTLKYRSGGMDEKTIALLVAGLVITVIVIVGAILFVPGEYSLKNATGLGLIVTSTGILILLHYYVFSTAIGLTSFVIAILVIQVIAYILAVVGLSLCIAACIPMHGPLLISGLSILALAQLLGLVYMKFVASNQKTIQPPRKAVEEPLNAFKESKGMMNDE
Description: as §1, with “The binding ability of the antigen-binding protein to CHOK1-hCD47 cells (GenScript, M00581) highly expressing human CD47 was determined by flow cytometry FACS. Specifically, the” for “Specifically, the”, “at 100 µL/well, followed by” for “at 100 μL/well, followed by”, “of test binding proteins diluted in” for “of test antibodies diluted in”, “was discarded. […] Fluorescence signal” for “was discarded. Finally, the cells in each well were resuspended in 200 μL of pre-cooled PBS. Fluorescence signal”

Row | Molecule | cell killing of BCMA-positive cells NCI-H929 (NCI-H929 cells) | binding activity to HEK293T-hBCMA cells [1] | cell killing of mixed cells of NCI-H929 and SNU-16 [2] | cell killing of BCMA-negative cells SNU-16 (SNU-16 cells) | binding to BCMA-negative cells SNU-16 [3] | SEC-HPLC purity (%) [4] [%] | DSF Tm1 (° C.) [5] [°C] | binding ability to NCI-H929 cells [6] | Content of DAR = 0 component [7] [%] | Content of DAR = 2 component [7] [%] | Content of DAR = 4 component [7] [%] | Peak area % of DAR = 0 component peak [8] [%] | Peak area % of DAR = 1 component peak [8] [%] | Peak area % of DAR = 2 component peak [8] [%] | Peak area % of DAR = 4 component peak [8] [%] | binding activity to CD47 (CHOK1-hCD47 cells) [9]
1 | PR001046-ADC (conjugate) heavy: EVQLVETGGGLIQPGGSLRLSCAASGFTVSDNYMTWVRQAPGKGLEWVSVIFSGGNTYYADSVKGRFTISRDNAKNTLYLQMNSLRAEDTALYYCARRNYDDTRGTDVFDIWGQGTMVTVSS[not shown - human IgG1 Fc] | can specifically kill | strong specific binding activity | can specifically kill | cannot kill | – | – | – | – | – | – | – | – | – | – | – | –
2 | PR004433: anti-BCMA HCAb antibody, SEQ ID NO: 70 (antibody) heavy: EVQLVETGGGLIQPGGSLRLSCAASGFTVSDSYMTWVRQAPGKGLEWVSVIFSGGRTYYSDSVKGRFTISRDNAKNTLYLQMNSLRAEDTALYYCARRNYDDTRGTDVFDIWGQGTMVTVSS[not shown - human IgG1 Fc] | – | strong specific binding | – | – | cannot bind | 98.86 | 55.8 | strong specific binding; also recorded: can specifically bind | – | – | – | – | – | – | – | –
3 | PR006345-ADC (conjugate) EEELQIIQPDKSVLVAAGETATLRCTITSLFPVGPIQWFRGAGPGRVLIYNQRQGPFPRVTTVSDTTKRNNMDFSIRIGNITPADAGTYYCIKFRKGSPDDVEFKSGAGTELSVRAKPSGGGAS[not shown - human IgG1 Fc] | – | – | – | – | – | – | – | – | 3 | 89 | 2 | 14.66 | 2.67 | 75.37 | 7.30 | strong specific binding activity
